Assay results taken from PubChem BioAssay AID1963576 (National Center for Advancing Translational Sciences (NCATS), 2024).
The campaign covered roughly 46,000 compounds. About 60 (0.1%) were called active. Not shown: some 3% with an inconclusive outcome. The call rests on the fitted dose curve; in most records, active means well fitted inhibition curve with a large enough effect; inconclusive means small, poorly fitted or top-dose-only effect; inactive means no such curve, though single readings can be large or run the other way. Some of the results follow.

test: Primary qHTS assay for Inhibitors of ovarian cancer metastasis using an organotypic tumor microenvironment (TME) model.; further: nearly all actives have a fitted effect of over 65% in size;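 on activity change, negative = inhibition: plate controls were DMSO wells for no effect and tomatine positive control wells for full effect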; conditions: SKOV3ip1-GFP adhesion/invasion on 3D omental model, fluorescence; series mostly up to 45.8 µM; activity change, negative = inhibition: at the top concentration
Method in brief: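 qHTS, 4-pt dose (0.36-46 umol/L); SKOV3ip1-GFP, 1,200 cells/well, no FBS; primary omental fibroblast/mesothelial co-culture 48 h pre-grown; 2 h RT + 16 h 37 C; PBS wash, 4% PFA; GFP count 488/509 nm.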

Compound	activity change, negative = inhibition	outcome
O=C(c1cc2ccccc2oc1=O)N(Cc1cccc(Cl)c1)C1CCS(=O)(=O)C1 (stereo unspecified)	inactive: 3.33%	–
CCOC(=O)C1CCN(C(=O)C2COc3ccccc3C2)CC1 (stereo unspecified)	inactive: -2.54%	–
Cc1ccc(OCCCn2c(C3CC(=O)N(c4cccc(Cl)c4)C3)nc3ccccc32)c(C)c1 (stereo unspecified)	inactive: 1.88%	–
COc1cccc(-n2ccnc2SCC(=O)Nc2cccc(C)c2C)c1	–	inactive
COc1ccc(-n2ncc(C(=O)NCc3ccccc3)c2C2CCN(C(=O)OC(C)(C)C)CC2)cc1	inactive: -7.75%	–
COc1ccc(-c2nc3c(C#N)c[nH]n3c2NC2CCCCC2)c(OC)c1	inactive: -9.93%	–
CCCC(=O)NCC(c1ccc2c(c1)OCO2)N1CCN(c2ccc(F)cc2)CC1 (stereo unspecified)	inactive: 0.827%	–
CCc1ccc(NC(=O)Cn2cnc3sc(C)c(S(=O)(=O)N4CCC(C)CC4)c3c2=O)cc1	inactive: -9.41%	–
CCOc1ccccc1CNC(=O)Nc1cn(CC(C)C)c(=O)c2ccccc12	inactive: -7.41%	–
COc1ccc(CCNC(=O)CCn2c(=O)c3cccn3c3ccc(F)cc32)c(OC)c1OC	inactive: 0.361%	–
Cc1ccc(OCc2nc3ccccc3n2CC(C)C)cc1	inactive: 4.46%	–
Cc1ccc(CN2CCC(CNc3ncnc4onc(-c5ccc(Cl)cc5)c34)CC2)cc1	inactive: -11.4%	–
CC1(c2ccc(Cl)cc2)CC(C)(C)N(C(=O)c2ccccc2)c2ccccc21 (stereo unspecified)	–	inactive
COc1ccc(N(CC(=O)NC(C)c2ccccc2)S(=O)(=O)c2c(C)noc2C)cc1 (stereo unspecified)	–	inactive
CCCN(C(=O)c1cc2c(s1)-c1ccccc1SC2)c1ccccc1F	inactive: -26%	–
Cc1cc2c(cc1S(=O)(=O)NCc1ccc(N(C)C)cc1)OCC(=O)N2	inactive: 8.73%	–
CC(Oc1ccccc1)C(=O)Nc1nc2ccc(S(N)(=O)=O)cc2s1 (stereo unspecified)	inactive: -0.0764%	–
COC(=O)CNC(=O)Nc1cc(C(=O)NCc2ccc(C)cc2)ccc1N1CCCC1	inactive: 0.0817%	–
CC(C)(C)NS(=O)(=O)c1ccc2nc(NC(=O)c3cccnc3)sc2c1	inactive: 0.902%	–
COc1ccc2c(c1)c(C1=C(c3c[nH]c4ccccc34)C(=O)NC1=O)cn2CCCN(C)C	inactive: -9.58%	–
COc1cc(C2NC(=O)NC(C)=C2C(=O)Nc2cc(C)cc(C)c2)ccc1O (stereo unspecified)	inactive: -1.06%	–

Compound	activity change, negative = inhibition	outcome
CCOC(=O)c1c(C)c(-c2ccccc2)n(CC(=O)Nc2cc(OC)cc(OC)c2)c1C	inactive: 7.77%	–
CCOC(=O)c1noc2ncnc(N3CCN(c4ccccc4OC)CC3)c12	inactive: 5.74%	–
Cc1ccc(Cn2c(SCC(=O)NCc3ccc(Cl)cc3)nc3ccsc3c2=O)cc1	inactive: 4.18%	–
CCc1cc(C(=O)Nc2c(C)nn(Cc3ccc(C)cc3)c2C)no1	inactive: 1.39%	–
O=C(CSc1nc2ccccc2c2nc(-c3ccccc3)nn12)Nc1ccc(Br)cc1	inactive: -6.91%	–
CC(C)(C)c1cc(C(C)(C)C)c2oc(=O)c(-c3nc4ccccc4[nH]3)cc2c1	inactive: -2.7%	–
O=C(Nc1ccc(F)cc1F)c1ccc(CN2CC(=O)N3CCCCC3C2=O)cc1 (stereo unspecified)	inactive: 2.98%	–
COC(=O)C1CCN(S(=O)(=O)c2cc3c4c(c2)C(C)C(=O)N4CCC3)CC1 (stereo unspecified)	inactive: 14.8%	–
COc1ccc(C)cc1NC(=O)c1oc2ccc(S(=O)(=O)N(C)C3CCCCC3)cc2c1C	–	inactive
CC(=O)N1c2ccccc2CC1C(=O)N1CCN(c2ccc(F)cc2)CC1 (stereo unspecified)	inactive: 8.22%	–
COCCCNC(=O)Cn1c(=O)n(-c2ccc(C)cc2)c(=O)c2c1c1cc(C)ccc1n2C	inactive: 0.969%	–
O=c1cc(-c2ccccc2)oc2cc(O)cc(O)c12	inactive: 28%	–
CCS(=O)(=O)N1CC(=O)N(c2ccccc2C)C(C)(C(=O)NC2CCCCC2)C1 (stereo unspecified)	–	inactive
COc1cccc(N2CCN(C(=O)C3CCC(CNS(=O)(=O)c4ccc(Br)s4)CC3)CC2)c1 (stereo unspecified)	inactive: -9.3%	–
Cc1ccc(NC(=O)CN2CCCN(Cc3cc(C)ccc3C)S2(=O)=O)c(Cl)c1	–	inactive
CN(C)c1ccc(C(CNC(=O)COc2ccc(Cl)cc2)N2CCOCC2)cc1 (stereo unspecified)	–	inactive
COc1ccc(NC(=O)CSc2nnc(-c3ccc(C)cc3)o2)cc1	–	inactive
Cc1ccc(Cl)cc1N1CCN(C(=O)c2cn(C3CCCCC3)c(=O)c3c2c2ccccc2n3C)CC1	inactive: 2.3%	–
Cc1nn(C(=O)c2cccc([N+](=O)[O-])c2C)c(C)c1S(=O)(=O)N1CCOCC1	inactive: 5.82%	–
CC(=O)Nc1ccc(S(=O)(=O)NCC2CCC(C(=O)NCCc3ccccc3)CC2)cc1 (stereo unspecified)	inactive: -5.08%	–
Cc1ccc(CNC(=O)c2cc3sccc3n2Cc2ccc(Cl)cc2)cc1	–	inactive

Compound	activity change, negative = inhibition	outcome
CCCn1c(=O)c2sccc2n2c(CCCC(=O)NCCc3ccc(Cl)cc3)nnc12	–	inactive
CC(CCc1ccccc1)NC(=O)Cn1ncc2c3ccccc3n(Cc3ccc(F)cc3)c2c1=O (stereo unspecified)	inactive: 8.32%	–
CC(C)c1ccc(S(=O)(=O)c2nnn3c2nc(NCCc2ccccc2)c2sccc23)cc1	inactive: -5.16%	–
Cc1cc(C)cc(Oc2nc3c(C)cccn3c(=O)c2/C=C(\C#N)c2nc3ccccc3[nH]2)c1	inactive: -0.664%	–
COc1cccc(N2CC(NC(=O)C(c3ccccc3)c3ccccc3)CC2=O)c1 (stereo unspecified)	–	inactive
COCC(=O)Oc1c(Sc2ccc(C)cc2)c(C)nn1C(C)(C)C	–	inactive
COc1cc(-c2ccno2)ccc1S(=O)(=O)N1CCN(c2cc(C)ccc2C)CC1	–	inactive
Cc1ccc(NC(=O)CC(C)S(=O)(=O)c2ccc3c(c2)NC(=O)CO3)c(C)c1 (stereo unspecified)	inactive: 3.18%	–
Cc1ccc2nc(-c3ccsc3)c(Nc3ccccc3C)n2c1	inactive: -18.2%	–
Cc1nc2nncn2c(N2CCN(c3ccccc3)CC2)c1C	inactive: -3.86%	–
c1cnc2cc3c(cc2n1)C1CNCC3C1	inactive: 1.69%	–
Cc1ccc(NC(=O)CSc2ncc3c(n2)-c2ccccc2N(Cc2cccc(F)c2)S3(=O)=O)cc1F	inactive: 0.495%	–
Cc1ccc(-c2cc(C(F)(F)F)n3nc(C(=O)Nc4ccc(Cl)cc4Cl)cc3n2)cc1	inactive: 17.5%	–
CCN(CC)C(=O)C1CCN(S(=O)(=O)c2ccc3c(c2)CCCN3C(C)=O)CC1	inactive: -10.6%	–
O=C1c2ccccc2C(=O)C1(c1ccccc1)N1CCN(c2cccc(Cl)c2)CC1	inactive: -9.47%	–
Cc1ccc(N2CC(NC(=O)/C=C\c3ccc4c(c3)OCO4)CC2=O)cc1C (stereo unspecified)	–	inactive
COC(=O)c1scc(-c2ccccc2)c1S(=O)(=O)Nc1ccccc1	–	inactive
Cc1ccccc1Cn1c(C(=O)O)c(CNCc2cccc(F)c2)c2ccccc21	–	inactive
COc1ccc(-n2c(/C=C/c3ccccc3F)nc3cc(OC)c(OC)cc3c2=O)cc1Cl	inactive: 5.08%	–
